Source: the supplement of paper PMC12632987
Whole data set: some 4,500 sequences, median “median log2 fold change of GCK-ALFA target abundance (FLAG IP / Myc IP barcode read proportion)” near 0.078, cut for the lowest 2% near -0.6. The list shows a part of the results.

B1: GBRAP_160_4402 (protein)
chain: KEKFEKTKKEIKEIFEETKKMIEGQTPEEIKTIIEVSAGQILLEVESNEEFSDEEIDEFSKILDRYVERAKKAVEEGLEAVKEEIERMRKEVEEFIEKIE
B2: GBRAP_166_4919 (protein)
chain: SMEERVEEAEERLRRVIEEERADPRMTPEQITVALADETAEILEEEKDRETRLAIVERALRLAKEAGLDPRRLAELTAGLYGFSDEEEEEIEKIVEEILA
B3: GBRAP_11_2724 (protein)
chain: KKEKLLKLAKKAEELAKKLEKLIKEGPTEEELKELLKEAEELAKEAKEAGVDESIVETLKEAAELIKKAIKDPENKIEYLNEALAALKVAAGDLLLEAEE
B4: GBRAP_160_4293 (protein)
chain: SEELEEHKKLVDETFKETLELMKGQTAEERAVIVDVELGALILELSEDPSVSDEALDEVDAIRDELVEYILANPNLTDEELEALLEEARKRILEILEKDA
B5: GBRAP_35_5611 (protein)
chain: DTDDLIADMLVATIEDLTLAVPDLDVDTLVAAVDGLVKSVREVAEELKDNLEALERLLEAMERLLEAMKAHHGDDPRAQEAIAKVEETIKYLKELIKKAK
B6: GBRAP_52_5919 (protein)
chain: SSEEAKKLAEEILEAALAGDKEKLEKLIKKLVEEKSLEEIKEVIKELARITAELGPEHYDLFAEIMDLLEDAAEEAGRDVEEVQYAIAEAAGLLYEAEQA
B7: GBRAP_9_7117 (protein)
chain: REEFIEKAAEVVKEAIEDIALVVPSVSEELKEKFKKRVEELKEEALKDKSLTKEEIAEKFKELLKEIKEEVKKIVNEEEQKMVDAIIYTAEEEIDELVEE
B8: GBRAP_14_3808 (protein)
chain: KEELKKAIREILEDLRRELVEDLGLDPERVTALVDEAIKRIEEAIETLENPEEKIEEIMEELRERIEALAAELGEDVAAGARALVDDAEYEIDEAIEKYS
B9: GBRAP_125_3143 (protein)
chain: KREELIALAEAVARAFGYSEEEIAELRRLAEASDPAQTIVAIFLAEGFEELAELAEKVLPKLTAEEVRELRDLAVEMLDAPLEEFAAALLAKLRELEAKL
B10: GBRAP_172_4999 (protein)
chain: GTTLLKLNLLGLSKEEAVETAVKAVKETIEKTGNNLVVAVIADDEETVEAVEKAIKKVAKEKGVKVEVVGEAYRSEEDERRVLAAAEAEKINLEYEEEEK
B11: GBRAP_184_5180 (protein)
chain: KILEKTLKFENVEELEEKLDEIAEEVKGTKAELYIYVEAEEVTVEMAETLMDKVKEIKEAGYASSITVHVDGDVSEEVADVLVEKAKEAGVKVALELEEE
B12: GBRAP_11_2738 (protein)
chain: KKEKLKKIAELAEKAAELVEKLIKEGVDNEKLIEETRKALEELKKAVKEYGDKSLQKLAELAIEDFNKGLEDPENAEQYFKEARATLRVLEGQVLLDIEE
B13: GBRAP_80_6788 (protein)
chain: AKERLEKAIKELEKEDEELAKKLKRIVEIAKEMGVSEETLAELAEAVLELAKEDLELAKEMLEELEKELEELKEEGDSENAEATLRVYAGQMLLEVEELE
B14: GBRAP_128_3310 (protein)
chain: MNEEILKKAKELAEKIVKASVEEAKKLTKEVIELMGKSSKEEREKITEILEEALKKLSAEKLEAVADTFRENRPKLDPYTANLAADLEVEALNLAEEKEE
B15: GBRAP_184_5322 (protein)
chain: EVVEVEITVSTEEEARKKLEEVKEEIKKSGKKYLVTIFVENPTEELLKTIADKIKEWKEEGIDAQVIVVTLDPVDEELADFAVKKFDEAGAKIVLALEDE
B16: GBRAP_52_6193 (protein)
chain: MREELRRKVEEILELVRAGRLEEARRLARELVEELNDEELELLAEVMAEVAARAPLEDEDAVFRTAELLAEAIEEAGKDEALAELLLARTAAALYAKHLA
B17: GBRAP_43_5741 (protein)
chain: SKELVEGALDFTKLLAEDPSIDEATKVRAFKAAVDLLADEKVQATDALVAAAKALAESLSEAAVQELIAHLDEVAAKNPAVKATFDAARAALRAALAARR
B18: GBRAP_52_6011 (protein)
chain: MEEEMRERLREALELVRAGREEEARKLVRELVKELNEEEIELLIELLAEMAREAAPEDFDAVWRLAEIVAEEMEEEGKDEVLADLLLARVAAALYEAEQR
B19: GBRAP_11_2818 (protein)
chain: MSEIVKELIKTLKELAEKAKKYLEEDVGNEELLKEIEKLAEKALELAKKLNDPAVIRDAQAILDTVKEAKADPANRAQYIANAKAGAETLLANIEEEAEE
B20: GBRAP_52_5921 (protein)
chain: SDEEARALAEAILEAALAGREDELRALIKRLVEEKSLEEIKRVIEELARLTAELGPEHYDLFADIMDLLLDAAEEAGRDVEEVDYAIAEAAGLLYDAEQA
B21: GBRAP_160_4581 (protein)
chain: SEKLERAKKLIDEARDFVKSQVDEVTLEEFKNIFETEFGAVILELLDEGLITEELADKLMEVVDAAVAYLDANPDLTPEERKALVDKATEEMKKILEEDY
B22: GBRAP_160_4779 (protein)
chain: SEKVKKLIESIEEAKKEILESIDTESPEETITVARGEMGLILAEVYELEIDNDELEDAVKEIGDELIEELKKNANASKEEKKKIIEEYTKKLIEKIKELS
B23: GBRAP_160_4763 (protein)
chain: SEELKKLKEEIDEIFDEYIELLKEVPKEEAVTIVEGAMGDVLMEVFSSEAASDELEDKIGEIADEAIARAKANKDAPVEEHIKILEDARDKILALLDEEI
B24: GBRAP_159_3963 (protein)
chain: MEERLAALREELRALGATEEQIAAALETVELSEEGEDPWSIAAHMVHLYTVLKATTEQLLLVLSYLPPEAAKESAEVLADLAERDGDAAAAAAFRAFAAA
B25: GBRAP_43_5781 (protein)
chain: SKELVDGALDFALLALEEPSIPEETKVKAIEAAFELAADEGYLDKEKLLAVIKAAGESLSAESLKKLKKKLEEIAKKYPEHKEVLEEAAELVEKAIKEKE
B26: GBRAP_184_5195 (protein)
chain: KVLEEEIKAENLEELKEKMKKLKEKAKKEKADLLVIVNLPEVTKEMIKALMEAMKEIKEEGYSPNILVEIVGKMTEENIDLAIKLADEAGVTLVLALDEE
B27: GBRAP_128_3532 (protein)
chain: STEEVIEEARKVVEEIKNSNVEEAYEITVEWLERLKTWSLEEVEAAVEVLIENLPLLSAEKLEAVADAIRENIGKLSPEKQRLVAGLEVEALNLAVEQEE
B28: GBRAP_52_6098 (protein)
chain: SEEELEKYAKELVKAAVAGDVEKATKLLLELVKSKSDEEVLKTLELAAKLMSELPKEELEKATDVMIEALDRVADETGKEELMDIAQARIAAIAYEALQK
B29: GBRAP_160_4741 (protein)
chain: SEELKKLKKEIEEIFKEGIELLKESEKSEALTIVRGIMGDVIMLALSSEAVSDELEEKIAEIADEAIEEVEKNKDADVEYAIEIVEKAKEEILKLIEEEI

Molecular target: GABARAP, O95166
Experiment: median log2 fold change of GCK-ALFA target abundance (FLAG IP / Myc IP barcode read proportion) (log2 ratio); each designed protein is fused to an ALFA-tag nanobody in HEK293 cells to bring the named protein to FLAG-tagged glucokinase (GCK); Myc marks an untargeted standard; higher = target protein stabilised (more abundant)
Settings: target protein: 3xFLAG-MCP-GCK-ALFA reporter; HEK293 landing pad (RPLP)
Method in brief: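 Binders fused to an ALFA nanobody were recombined as a library into HEK293 landing-pad cells, which were induced with 2 μg mL^−1 doxycycline and then transfected to express a FLAG-tagged target and a Myc-tagged standard. After 48 h, circular RNA barcodes recovered by anti-FLAG and anti-Myc immunoprecipitation of lysates were reverse transcribed, amplified and sequenced. Each binder's target abundance is the median log2 ratio of FLAG to Myc barcode read proportions, from barcodes present at ≥10^−7 in both replicates, binders carrying ≥3 barcodes per replicate, a 10^−6 pseudocount and pooled replicates.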

Sequence of GABARAP, O95166 (O95166 whole entry, the tested form may be a part): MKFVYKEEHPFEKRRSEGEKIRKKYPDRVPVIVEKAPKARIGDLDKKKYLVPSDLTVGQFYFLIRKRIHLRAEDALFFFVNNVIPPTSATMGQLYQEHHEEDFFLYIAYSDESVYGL

With B1 as the binder, how does the “median log2 fold change” value read?
The value was 0.143.

For B2, which “median log2 fold change” value is on record?
The value was 0.291.

With B3 as the binder, how does the “median log2 fold change” value read?
The value was 0.0653.

B4 was tested. Which “median log2 fold change” value did it give?
Its value is -0.53.

Which “median log2 fold change” value does the source give for B5 here?
Its value is 0.133.

B6 was tested. Which “median log2 fold change” value did it give?
Its value is 0.0167.

Which “median log2 fold change” value does the source give for B7 here?
The value was 0.282.

Which “median log2 fold change” value does the source give for B8 here?
The value was -0.0417.

B9 was tested. Which “median log2 fold change” value did it give?
Its value is -0.133.

How did the “median log2 fold change” value turn out when B10 was run?
The value was 0.15.

B11 was tested. Which “median log2 fold change” value did it give?
Its value is -0.0144.

How did the “median log2 fold change” value turn out when B12 was run?
The value was 0.144.

Which “median log2 fold change” value does the source give for B13 here?
The value was -0.124.

For B14, which “median log2 fold change” value is on record?
Its value is 0.201.

How did the “median log2 fold change” value turn out when B15 was run?
Its value is -0.413.

Which “median log2 fold change” value does the source give for B16 here?
The value was 0.0239.

With B17 as the binder, how does the “median log2 fold change” value read?
Its value is 0.186.

For B18, which “median log2 fold change” value is on record?
The value was -0.174.

For B19, which “median log2 fold change” value is on record?
Its value is 0.0577.

How did the “median log2 fold change” value turn out when B20 was run?
Its value is -0.394.

For B21, which “median log2 fold change” value is on record?
Its value is 0.0559.

With B22 as the binder, how does the “median log2 fold change” value read?
The value was -0.00444.

For B23, which “median log2 fold change” value is on record?
The value was -0.0101.

How did the “median log2 fold change” value turn out when B24 was run?
Its value is 0.185.

For B25, which “median log2 fold change” value is on record?
The value was 0.286.

With B26 as the binder, how does the “median log2 fold change” value read?
The value was -0.207.

With B27 as the binder, how does the “median log2 fold change” value read?
Its value is 0.128.

For B28, which “median log2 fold change” value is on record?
The value was 0.196.

With B29 as the binder, how does the “median log2 fold change” value read?
Its value is 0.138.
